# Source: the supplement of paper PMC10126150
# Values marked as one replicate rest on one cluster of the flow cell; about a third of the high ones do not repeat.
# Tested on: ATP
# Test: switch fluorescence ratio, 500 uM ATP over buffer (Cy3 cluster intensity, sum of 5 cycles each) (fold (ratio)); higher = stronger signal-on switching upon ATP binding; sequences stand for … in TCGTCGGCAGCGTCAGATGTGTATAAGAGACAGTTTTTTTTTTTTTTTTTTTTTTTTT…TC
# Settings: aptamer strand: ATP DNA aptamer (quencher-CACCTGGGGGAGTATTGCGGAGGAAGG + anchor), 100 nM annealed; ATP concentration: 500 uM; one replicate
# Summary of the method: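 Clusters with intensities outside 100-1000 RFU were excluded. The remaining Cy3-labelled switching-strand clusters on a modified Illumina MiSeq flow-cell had been annealed to 100 nM quencher-labelled ATP aptamer and imaged in selection buffer, then after 15 min with 500 uM ATP at 22 °C, for five cycles separated by NaOH stripping and re-annealing. The fluorescence ratio, averaged per switch-domain sequence, is each cluster's summed target-cycle Cy3 intensity over its summed buffer-cycle Cy3 intensity.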
# 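Note: ATP exposure 15 min at 22 °C before imaging.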
row,Sequence,switch fluorescence ratio
1,CGGAAAATGA,0.988
2,CGGAAAGCTT,1.09
3,CGGAAAGTAG,1.04
4,CGGAAATCCA,0.953
5,CGGAAATGAC,1.12
6,CGGAACGGTC,1.02
7,CGGAACTTAA,1.01
8,CGGAAGAACG,1
9,CGGAAGAGGA,0.983
10,CGGAAGCAAG,1.57
11,CGGAAGCCTG,1.04
12,CGGAAGGAGG,1.03
13,CGGACAAAAA,1.02
14,CGGACAGCAT,3.14
15,CGGACAGGGG,1.05
16,CGGACCGATC,1.04
17,CGGACGGAGC,1.76
18,CGGACTACGG,1.1
19,CGGAGACTGT,1.03
20,CGGAGATTT,0.97
21,CGGAGCTGGG,1.24
22,CGGAGTACGT,1.05
23,CGGAGTCGCT,1.03
24,CGGAGTGACC,1.19
25,CGGAGTGAGA,1.15
26,CGGATCAGTC,1.02

row,Sequence,switch fluorescence ratio
1,CGGATCTTCA,1.03
2,CGGATGGTGG,1.04
3,CGGATTCGTC,0.971
4,CGGATTTAGC,0.996
5,CGGATTTTTG,0.959
6,CGGCAAAGAT,1.05
7,CGGCACGGGT,0.974
8,CGGCACTTGT,1
9,CGGCAGAGTG,1.01
10,CGGCAGTCTA,0.973
11,CGGCATAATG,1.01
12,CGGCATCGG,1.04
13,CGGCATGGCA,0.984
14,CGGCCAAACA,1.06
15,CGGCCAGATG,1.09
16,CGGCCAGCCG,1.04
17,CGGCCCTTTC,1.13
18,CGGCCGGA,0.989
19,CGGCCGTCCT,1.03
20,CGGCCTGACC,1.06
21,CGGCGAATGG,1.05
22,CGGCGAGATT,0.986
23,CGGCGATCTT,0.996
24,CGGCGCGGC,1.06
25,CGGCGGATTT,1.05
26,CGGCGGTATG,0.945

row,Sequence,switch fluorescence ratio
1,CGGCGGTCTG,0.972
2,CGGCTAAAAC,1.33
3,CGGCTAATGT,1.02
4,CGGCTACTCG,1.34
5,CGGCTAGCAG,1
6,CGGCTATTGA,1.01
7,CGGCTCAAGT,1.02
8,CGGCTCAGCG,0.972
9,CGGCTCGGAG,1.01
10,CGGCTTAAAT,0.972
11,CGGCTTCCCG,1.01
12,CGGCTTGTAT,1.01
13,CGGCTTTTTC,2.35
14,CGGGAAACGG,1.09
15,CGGGAACACG,0.999
16,CGGGAAGGCA,0.965
17,CGGGACCTAG,0.988
18,CGGGACGCCA,1.03
19,CGGGACTGAG,0.999
20,CGGGATAGCT,0.999
21,CGGGATCTTA,0.958
22,CGGGATGCA,1.06
23,CGGGCAAAC,3.72
24,CGGGCAAAGC,1.53
25,CGGGCAGCAA,3.4
26,CGGGCCTGCG,1.02

row,Sequence,switch fluorescence ratio
1,CGGGCGAAGA,0.982
2,CGGGCGTATA,1.02
3,CGGGGCAGTT,1.03
4,CGGGGTAACT,1
5,CGGGGTATAA,1.02
6,CGGGGTCACC,1.01
7,CGGGGTTAAA,0.998
8,CGGGGTTACA,0.991
9,CGGGGTTAGG,0.998
10,CGGGTAATAT,1.15
11,CGGGTACAGG,1.08
12,CGGGTATCG,0.976
13,CGGGTCAACC,1.03
14,CGGGTCAGTT,1.07
15,CGGGTCCCGT,1.04
16,CGGGTCGGA,0.984
17,CGGGTGAATA,1.03
18,CGGGTGCAAC,0.993
19,CGGGTGCCGA,1.01
20,CGGGTGCTTA,1.49
21,CGGGTGGACT,1
22,CGGGTTGGCA,1.03
23,CGGTAACAGA,1.02
24,CGGTAAGGTT,1.16
25,CGGTACAAGA,1.03
26,CGGTACCTAT,0.99

row,Sequence,switch fluorescence ratio
1,CGGTAGAATA,0.978
2,CGGTAGACGT,1.04
3,CGGTAGCGCT,1.01
4,CGGTATCACG,0.967
5,CGGTATGG,0.985
6,CGGTATGGGT,0.995
7,CGGTCATAAC,1.08
8,CGGTCCGGGG,0.977
9,CGGTCGTTCT,0.895
10,CGGTCTAGTG,0.97
11,CGGTCTTCGG,1.02
12,CGGTCTTCTC,0.999
13,CGGTCTTTTA,0.929
14,CGGTGAATTA,0.957
15,CGGTGACCCT,1.03
16,CGGTGAGATG,1.05
17,CGGTGATTCA,0.975
18,CGGTGCAACG,0.975
19,CGGTGCAGCC,0.985
20,CGGTGCTCCG,1.03
21,CGGTGCTGTG,1.03
22,CGGTGGCAA,1.42
23,CGGTGGCGCG,0.985
24,CGGTGGGAGG,0.998
25,CGGTGGGTGA,1.01
26,CGGTGTACCG,0.951

row,Sequence,switch fluorescence ratio
1,CGGTGTCAAG,0.989
2,CGGTGTCTGA,1.02
3,CGGTGTGAAA,1.12
4,CGGTGTGCCA,0.988
5,CGGTGTGGTA,0.969
6,CGGTTAAGTA,0.984
7,CGGTTATTGC,1.01
8,CGGTTCAAGC,0.978
9,CGGTTCAGGA,0.984
10,CGGTTCCCGG,1.02
11,CGGTTCTTAC,1.07
12,CGGTTTAAGA,1.05
13,CGGTTTATTT,1.02
14,CGGTTTGGTT,0.973
15,CGGTTTTAAA,1.04
16,CGGTTTTACC,0.987
17,CGTAAAGGCG,0.944
18,CGTAAAGTCG,1.11
19,CGTAAGTCT,1.02
20,CGTAAGTTGT,0.994
21,CGTACAGGAG,1
22,CGTACCTGAG,1.18
23,CGTACGGAGG,0.965
